In PubChem BioAssay AID2546 (National Center for Advancing Translational Sciences (NCATS), 2010):
About 11,000 (3.5%) of roughly 310,000 compounds were called active. Inconclusive means that the source gave no clear call. Such entries were picked first, then a sample of the others. The call rests on the fitted dose curve; in most records, active means well fitted inhibition curve with a large enough effect; inconclusive means small, poorly fitted or top-dose-only effect, or effect the other way; inactive means flat fitted curve, though single readings scatter. No potency is given beside an inconclusive call; the fits are too rough.

Assay: VP16 counterscreen qHTS for inhibitors of ROR gamma transcriptional activity;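 further: Gal4-VP16 expression switched on by copper sulfate through the metallothionein promoter; nearly all actives have a fitted effect of over 50% in size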
Conditions: Drosophila S2 Gal4-VP16 UAS-luciferase, luminescence, 20 h; series mostly up to 53.6 µM
Potency means the concentration at half of the fitted maximal effect; tags describe the fitted curve by direction and shape.

SMILES	Potency
C(=N\Nc1nc(-c2ccccn2)nc2ccccc12)/c1ccccc1	active: 0.501 µM
Cc1occc1C(=O)NC1CCCc2ccccc21 (configuration not stated)	inconclusive [inhibitor, single point]
Cc1sc(NC(=O)c2ccccc2)c(C#N)c1-c1ccccc1	inconclusive [inhibitor, single point]
COc1cc(NC(=S)Nc2ccc(Br)cc2Cl)c(OC)cc1Cl	inconclusive [inhibitor, single point]
O=C(O)CCCNC(=O)CCCNC(=O)C(c1ccccc1)c1ccccc1	inconclusive [activator, single point]
O=C(Nc1ccccc1)OCCCc1ccccc1	inconclusive [activator, partial curve]
CC(=O)Nc1cccc(-c2csc(Nc3ccccn3)n2)c1	inconclusive [inhibitor, full curve]
Cc1ccc(CSc2nnc(SCC(=O)N/N=C/c3c[nH]c4ccccc34)s2)cc1	inconclusive [inhibitor, partial curve, poor fit]
Cc1cc(=O)oc(C)c1C(=O)N1CCN(C(c2ccccc2)c2ccccc2)CC1	inactive
COC(=O)Nc1ccc(SCC(=O)c2ccccc2)cc1	inactive
Clc1ccc2ccc3cccnc3c2n1	inconclusive [inhibitor, single point]
Cc1ccc(-c2nc3ccccc3nc2Cl)cc1	inconclusive [activator, single point]
COC(=O)c1ccc(-c2nc(-c3cccs3)no2)cc1	inconclusive [inhibitor, partial curve, poor fit]
CCCCSc1nnc(CSc2ncccn2)n1C	inactive
Cc1[nH]n(-c2ccccc2)c(=O)c1N=Nc1c(Cl)cccc1Cl	inconclusive [inhibitor, single point]
Oc1ccccc1/C=N/Nc1cc(N2CCCC2)nc(N2CCCC2)n1	inconclusive [inhibitor, single point]
CCc1nnc(NC(=O)CC23CC4CC(CC(C4)C2)C3)s1	inconclusive [inhibitor, partial curve]
Cc1cc(C(=O)N2CCOCC2)n(-c2ccccc2)n1	inconclusive [inhibitor, single point]
COc1ccccc1N1CCN(C2CCCN(C(=O)CCn3cncn3)C2)CC1 (configuration not stated)	inactive
CCC(C)(C)c1ccc(OCC(=O)N(C)C)c(C(C)(C)CC)c1	inconclusive [inhibitor, single point]
O=C(CSc1cccc[n+]1[O-])Nc1ccccc1Oc1ccccc1	active: 7.94 µM
C=CCn1c(-c2cc3c(s2)CCC(CC)C3)n[nH]c1=S (configuration not stated)	inconclusive [inhibitor, partial curve]
CCN1CCN(C(=O)C2CCCN(S(=O)(=O)c3cccc4nsnc34)C2)CC1 (configuration not stated)	inactive
COCC(C)NC(=O)c1cc(-c2ccc(O)cc2)on1 (configuration not stated)	inconclusive [inhibitor, single point]

SMILES	Potency
COc1ccc(/C=C2\N=C3CCCCCN3C2=O)cc1	inconclusive [activator, partial curve]
CCOC(=O)C(NC(=O)c1ccccc1Cl)(Nc1ccc(C)c(C)c1)C(F)(F)F (configuration not stated)	inactive
Cc1ccc(NC(=O)CSc2nnc(-c3cccs3)o2)cc1S(=O)(=O)N(C)C	inconclusive [activator, single point]
CCCCCCCCC(=O)NC(NC(=S)N1CCOCC1)C(Cl)(Cl)Cl (configuration not stated)	inconclusive [inhibitor, single point]
O=C(Cn1cnc([N+](=O)[O-])n1)N/N=C/c1cc(Cl)ccc1O	inconclusive [inhibitor, single point]
COc1ccc(C2=NCCc3cc(OC)c(OC)cc32)cc1OC	active: 6.31 µM
O=S(=O)(Cc1ccccc1)c1nnnn1-c1ccccc1	inconclusive [inhibitor, single point]
Cc1ccc(NC(=O)c2cc(N3C(=O)C=CC3=O)ccc2Cl)cc1C	active: 7.94 µM
Cc1cc2c3c([nH]c2cc1S(=O)(=O)N1CCC2(CC1)OCCO2)CCCC3=O	inconclusive [inhibitor, partial curve]
COc1ccc(/C=N/NC(=O)c2ccc(NC(C)=O)cc2)cc1COc1ccc(F)cc1F	active: 10 µM
O=S(=O)(Nc1ccc(O)c(Sc2nc3ccccc3s2)c1)c1ccc(F)cc1	inconclusive [inhibitor, single point]
Cc1nc2sc3c(c2c(=O)[nH]1)CCCC3	inactive
COC(=O)c1cc(S(=O)(=O)NCCN2CCOCC2)cn1C	inconclusive [inhibitor, single point]
CN1C(=O)N(C)C(NC(=O)Nc2ccccc2)C1NC(=O)Nc1ccccc1 (configuration not stated)	inactive
Cc1ccccc1-c1nc(CN(Cc2c(C)nn(C)c2C)C2CC2)c(C)o1	active: 12.6 µM
CN1CCN(C(=S)c2ccc([N+](=O)[O-])cc2)CC1	inactive
CCCc1cc(C(=O)N2CCCC(C(=O)c3cccc4ccccc34)C2)n(C)n1 (configuration not stated)	inactive
CC(C)CCn1c(Sc2nc3ccccc3o2)nc2c1c(=O)[nH]c(=O)n2C	inconclusive [activator, single point]
Cc1ccccc1CN1CCSc2sccc2C1=O	inconclusive [activator, partial curve]
COc1ccccc1NC(=O)c1ccc2c(c1)N(CC#N)C(=O)C(C)(C)O2	inconclusive [inhibitor, single point]
CC(C)c1ccc(C(=O)NCCCN2CCN(CCCNC(=O)c3ccc(C(C)C)cc3)CC2)cc1	inconclusive [inhibitor, single point]
COC(=O)c1cn(C(=O)c2cc(C)cc(C)c2)c2ccccc12	inactive
COC(=O)c1ccc(C2/C(=C(\O)c3cccc(OC)c3)C(=O)C(=O)N2CCCN(C)C)cc1 (configuration not stated)	inconclusive [activator, single point]
